Data reported in paper PMC4336329 (PLoS ONE, 2015).
Out of some 310,000 compounds screened, about 14,000 (4.5%) showed an effect of 50% or more. Effects have a minus sign here. This is one part of the list.

molecular target: human ether-à-go-go-related gene (hERG) potassium channel (human, UniProt Q12809); assay: primary screen, population patch clamp on CHO cells stably expressing hERG
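Note: peak tail current of the secondary pulse compared with the same well before compound.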

Chain of human ether-à-go-go-related gene (hERG) potassium channel (Q12809 whole entry, looked up): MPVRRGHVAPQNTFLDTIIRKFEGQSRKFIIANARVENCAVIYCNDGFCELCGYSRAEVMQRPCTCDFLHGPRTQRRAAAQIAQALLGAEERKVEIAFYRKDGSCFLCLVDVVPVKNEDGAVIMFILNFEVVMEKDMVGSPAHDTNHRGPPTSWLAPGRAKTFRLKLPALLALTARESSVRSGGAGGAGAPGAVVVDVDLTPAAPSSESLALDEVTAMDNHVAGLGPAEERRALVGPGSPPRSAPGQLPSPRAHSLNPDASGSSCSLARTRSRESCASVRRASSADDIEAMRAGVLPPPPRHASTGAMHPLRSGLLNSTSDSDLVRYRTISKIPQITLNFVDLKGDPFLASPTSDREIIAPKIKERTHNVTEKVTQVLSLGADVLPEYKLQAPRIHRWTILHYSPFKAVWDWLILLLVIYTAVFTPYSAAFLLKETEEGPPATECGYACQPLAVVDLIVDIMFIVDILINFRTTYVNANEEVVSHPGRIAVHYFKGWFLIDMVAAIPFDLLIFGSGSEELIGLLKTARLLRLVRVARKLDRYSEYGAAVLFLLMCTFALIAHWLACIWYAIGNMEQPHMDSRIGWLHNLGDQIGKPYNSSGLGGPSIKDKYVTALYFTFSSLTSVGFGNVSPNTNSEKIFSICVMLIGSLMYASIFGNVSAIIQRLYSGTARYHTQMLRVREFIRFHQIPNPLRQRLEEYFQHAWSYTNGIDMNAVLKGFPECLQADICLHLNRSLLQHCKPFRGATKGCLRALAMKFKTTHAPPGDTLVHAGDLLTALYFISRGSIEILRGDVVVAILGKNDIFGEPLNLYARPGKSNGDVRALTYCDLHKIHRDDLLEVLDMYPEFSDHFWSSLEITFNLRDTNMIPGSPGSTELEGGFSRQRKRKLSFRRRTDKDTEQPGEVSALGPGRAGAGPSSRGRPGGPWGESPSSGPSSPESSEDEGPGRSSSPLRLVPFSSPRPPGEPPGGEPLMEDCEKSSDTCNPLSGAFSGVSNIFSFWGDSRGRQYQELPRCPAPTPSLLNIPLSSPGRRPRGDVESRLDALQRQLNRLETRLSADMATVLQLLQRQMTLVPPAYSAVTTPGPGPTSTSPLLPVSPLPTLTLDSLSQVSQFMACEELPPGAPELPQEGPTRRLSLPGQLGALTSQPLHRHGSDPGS

SMILES | hERG current change (%, negative = inhibition) at 10uM [%]
O=c1c2ccccc2nc(SCc2cccc(F)c2)n1-c1cccc(S(=O)(=O)N2CCCC2)c1 | 6.92
CC(C)(C)c1ccc(C(=O)Nc2nnc(SCC(=O)NCC3CCCO3)s2)cc1 (stereo not shown) | 16.6
O=[N+]([O-])c1cccc(CP(=O)(c2ccccc2)c2ccccc2)c1 | 4.45
C/C(=N/NC(=O)CNC(=O)c1ccncc1)c1ccco1 | -2.36
Cc1nn(C)c(C)c1CN(C)C(=O)C1(C)CC1(Br)Br (stereo not shown) | 3.92
CC(C)c1ccc(N2C(=O)CC(Sc3ncccn3)C2=O)cc1 (stereo not shown) | 15.3
CC(=O)N1CCN(c2ccc(NC(=O)COc3ccc(Cl)cc3Cl)cc2)CC1 | -12.9
CCN(C(=O)c1coc(=O)c(Br)c1)c1ccc2c(c1)OCO2 | -1.7
COc1ccc([C@H]2CC(=O)C=C(c3cc(Cl)cc(Cl)c3)C2)cc1 | 9.18
O=C(NCCCCc1ccccc1)c1ccccc1F | 7.63
Cn1c(=O)oc2cc(S(=O)(=O)NCCC(=O)N3CCN(c4ccccc4F)CC3)ccc21 | -17
CC(C)(C)NC(=O)CN(C(=O)C1(C)CC(=O)N=C2C=CC=CN21)C1CCCC1 (stereo not shown) | 6.36
COc1ccc(S(=O)(=O)Cc2ccc(C(=O)O)o2)cc1 | 21.8
Cc1ccc(N(Cc2cc(=O)[nH]c3ccccc23)C(=O)CCl)cc1 | -1.45
COc1ccc(NC2CS(=O)(=O)CC2NCc2ccco2)cc1 (stereo not shown) | 5.46
Cc1cc([N+](=O)[O-])ccc1NC1CCCC1 | -29.3
O=C(NNC(=S)NCc1ccco1)c1ccc(S(=O)(=O)N2CCOCC2)cc1 | 19.1
O=C(/C=C/c1ccccc1)Nc1ccc(Br)cn1 | 10.2
NC(=O)CC(NC(=O)Cc1ccc(Cl)cc1)c1ccc(NC2CCCC2)c([N+](=O)[O-])c1 (stereo not shown) | 3.04
C#CC(CC)(CC)NC(=O)Nc1ccc(OCC)cc1 | -2.63
O=[N+]([O-])c1ccc(N2CCN(S(=O)(=O)Cc3ccccc3)CC2)cc1N1CCOCC1 | 1.95
COCC(=O)Nc1ccc(-c2cn3cccnc3n2)cc1 | 6.2
CCNC(=S)N/N=C/c1ccc(OCC(=O)Nc2ccc(OC)cc2)c(OC)c1 | 0.987

SMILES | hERG current change (%, negative = inhibition) at 10uM [%]
Cc1ccccc1C=O | 5.62
O=C(NNC(=O)c1cccc2ccccc12)c1ccco1 | 19.6
Cc1cccc(OCC(=O)NCC2CCCO2)c1C (stereo not shown) | -6.7
CC(=O)Nc1cc(S(=O)(=O)Nc2ccccc2C)c(C)cc1C | -7.03
CSc1ccc(/C=N/n2c(C3CCCCC3)n[nH]c2=S)cc1 | 21.9
Cc1ccc2c(c1)N(CC(=O)c1cccc(Cl)c1)C(=O)C(C)O2 (stereo not shown) | -1.25
COC(=O)CCN(C(=O)c1ccc(C)c([N+](=O)[O-])c1)c1ccccn1 | 19.3
Cc1ccc(N(CC(=O)NCc2ccc3c(c2)OCO3)C(=O)CCC(=O)Nc2ccccn2)cc1 | 3.15
CC(=O)Nc1ccc(S(=O)(=O)N2CCC(C(=O)NCc3ccco3)CC2)cc1 | 0.324
O=C(Nc1ccccc1OC(F)F)C1CCCN1C(=O)c1cccs1 (stereo not shown) | 1.98
CCOC(=O)CSc1nc2nc(C)cc(C)n2n1 | 0.674
COC(=O)CSc1nc(NC#N)nc(NC(C)C)n1 | 20.8
COc1ccc(-c2noc(C3CCCN(C(=O)c4cccc(F)c4)C3)n2)cc1 (stereo not shown) | -21.7
CN(Cc1ccccc1)S(=O)(=O)c1cc2c3c(c1)CCN3C(=O)CC2 | 0.905
COc1ccc(NC(=O)CCS(=O)(=O)c2cc3c(cc2Cl)NC(=O)CO3)cc1OC | 9.57
COc1ccc(CN(C)CC(O)COC(c2ccc(OC)cc2)c2ccc(OC)cc2)cc1 (stereo not shown) | -77.2
CCOC(=O)C1=C(Nc2ccc(Br)cc2)CC(C)(O)C(C(=O)OCC)C1c1ccccc1 (stereo not shown) | 10.5
Cn1cnc([N+](=O)[O-])c1Sc1n[nH]c(N)n1 | 14.3
CCCCC(C(=O)NC(=O)NCc1ccccc1)N1C(=O)c2ccccc2C1=O (stereo not shown) | 11
CCOC(=O)Cc1nn(Cc2nc(-c3ccc(C)cc3)cs2)c(=O)c2ccccc12 | -3.17
Cc1sc2ncn(CCC(=O)O)c(=O)c2c1C | 20.5
CN(Cc1nccs1)C(=O)c1ccc(OC2CCN(Cc3ccccn3)CC2)cc1 | -11.5
CC1CCN(S(=O)(=O)c2ccc(S(=O)(=O)N3CCCC3)cc2)CC1 | -9.29

SMILES | hERG current change (%, negative = inhibition) at 10uM [%]
CC(C)(C)C(=O)N1NC(=Nc2ccccc2)SC1(C)C | 2.2
Cc1ccc(Cc2cnc(NC(=O)C3=NCCN3)s2)cc1 | -0.641
COc1ccc(-n2c(-c3ccccc3)nc3ccccc3c2=O)cc1 | -3.34
Cc1cc(C)n2ncc(/C(N)=N/OC(=O)Nc3ccc(Cl)cc3)c2n1 | 11.5
Nc1c2c(nc3ccccc13)CSCC2 | -57.3
CC1=C(C(=O)Nc2ccccn2)C(c2ccccc2Cl)NC(=S)N1 (stereo not shown) | 10.1
Cc1ccc(CNC(=O)CO/N=C/c2ccc(C(C)(C)C)cc2)cc1 | 22.1
Cn1c(=O)c2c(SCC(=O)NC3CCCC3)nc(CC(C)(C)C)nc2n(C)c1=O | 5.51
Cc1ccc(NC(=O)c2sc3nc[nH]c(=O)c3c2C)c(C)c1 | 2.03
C=C(C)CNC(=S)Nc1cccc(S(=O)(=O)NC2=NCCC2)c1 | 17.3
O=C(O)CSC1CC(=O)N(c2cccc(Cl)c2)C1=O (stereo not shown) | 15.2
CCCCS(=O)(=O)N1CCCC(C(=O)NCC2CCCO2)C1 (stereo not shown) | 8.43
Cc1n[nH]c(C)c1S(=O)(=O)N1CCN(C2CCCCC2)CC1 | -0.909
O=C(CSC(=S)N1CCCC1)Nc1cc2c(cc1Br)OCCO2 | 11.2
C=CCn1cnc2scc(-c3ccc(CC)cc3)c2c1=O | -20.9
Cc1ccc(CN2CCNC(=O)C2CC(=O)N(C)C2CCOCC2)cc1 (stereo not shown) | 9.55
CN(CC(=O)Nc1cccc(F)c1)C(=O)CSc1ccccc1F | 12.8
OCCC1CN(Cc2cccc3c2OCO3)CCN1Cc1ccccc1 (stereo not shown) | -3.38
CCC(C)(C)n1nnnc1C(c1ccc(OC)c(OC)c1)N1CCN(c2ccccc2)CC1 (stereo not shown) | -39.5
COCCN(Cc1ccccc1)C(=O)Cc1ccc(OC)c(S(=O)(=O)N2CCOCC2)c1 | -19
O=C(Nc1ccccc1N1CCCCC1)c1ncoc1-c1cccc(F)c1 | 10.3
CCOc1ccc(S(=O)(=O)N2CCN(C(=O)c3sccc3C)CC2)cc1 | -1.73
COc1ccc(C2C(C#N)=C(N)Oc3cc(C)[nH]c(=O)c32)cc1OC (stereo not shown) | 7.08

SMILES | hERG current change (%, negative = inhibition) at 10uM [%]
CCOc1ccc(C(=O)NCc2cccnc2)cc1 | -3.41
COc1cc2c(cc1NC(=O)C(C)Sc1nc3ccccc3n1C)oc1ccccc12 (stereo not shown) | 16.2
OCCC1CN(Cc2cccn2-c2cccnc2)CCN1Cc1ccccc1 (stereo not shown) | -42.4
O=C(NC(Cc1c[nH]c2ccccc12)C(=O)O)/C(=C\c1ccccc1)NC(=O)c1ccccc1 (stereo not shown) | 9.54
COC(=O)C1(CCSC)NC(c2ccco2)C2C(=O)N(C)C(=O)C21 (stereo not shown) | 3.91
O=C(CN1N=C(c2ccc(Cl)cc2)CCC1=O)NCc1cccnc1 | -26.4
CC(C)c1ccc(N(CC(=O)NCc2cccnc2)S(=O)(=O)c2ccccc2)cc1 | -27
Cl.OC12CC3C[C@H](C1)C(N1CCOCC1)[C@@H](C3)C2 (stereo partly shown) | 16.9
COCCN1CSC(=S)N(Cc2ccco2)C1 | 16.2
CCc1ccc(C(=O)NNC(=O)c2c(CC)noc2C)cc1 | 0.904
O=C(NN=C(Cc1ccccc1)Cc1ccccc1)c1ccc(F)cc1 | -26.4
O=c1sc2ccccc2n1COc1ccc(Cl)cc1 | 7.8
O=S1(=O)CCN(Cc2cccc(C(F)(F)F)c2)CC1 | 46.2
COc1ccc(-n2cc(C(=O)c3ccccc3O)cn2)cc1 | 9.18
CCc1ccc(CN2CCC(n3nccc3NC(=O)C3CCCC3)CC2)cc1 | -76.3
CCOCCn1c(=O)c2c(nc3n2CCN3c2ccc(C)cc2)n(C)c1=O | -2.21
CCOC(=O)C1CCCN(C(=O)c2cncc(Br)c2)C1 (stereo not shown) | -4.29
CC1(C)CC(=O)C=C(NCCN2CCN(C(=O)Cc3ccc(Cl)cc3)CC2)C1 | -6.62
O=Cc1ccccc1-c1cn(CCCOCc2ccccc2)nn1 | -6.1
COc1ccc(C(=O)NNC(=O)C2CCCO2)cc1 (stereo not shown) | 27.1
CC1CN(CC(=O)NCc2ccccc2)CC(C)O1 (stereo not shown) | 25.2
COC(=O)c1sc(N)c(C(=O)OC)c1Cn1ncc(Cl)c(Cl)c1=O | -2.38
